# Where “and” joins values, the source holds several entries; their conditions need not be identical. Identical values can stand only once. Inconclusive results, whose numbers are uncertain, are shown with a selection of clear calls. For some of these results: Potencies of inconclusive entries are doubtful fits and often do not repeat. Some compounds were tested as several samples or in several runs, with calls that do not always agree. Calls of active or inactive are those of the source. Unless noted, calls follow the shape of the dose curve; as a rule, active = well fitted curve in the direction sought with a large enough effect in the repeat runs; inconclusive = weak or mixed curves; inactive = no such curve, though single readings can be large; an effect the other way counts as inactive or inconclusive.
# Assays:
# [1] = biological target: Nuclear receptor subfamily 1 group I member 3 (Homo sapiens) (UniProt Q14994); experiment: qHTS assay to identify small molecule agonists of the constitutive androstane receptor (CAR) signaling pathway (AID 1224839);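 also: HepG2 cells stably carrying human CAR and a CYP2B6 luciferase reporter; % is scaled to controls: 0 for no effect and ±100 for the full control effect; nearly all actives have a fitted effect of over 15% in size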
# UniProt Q14994, sequence (Q14994 whole entry, looked up): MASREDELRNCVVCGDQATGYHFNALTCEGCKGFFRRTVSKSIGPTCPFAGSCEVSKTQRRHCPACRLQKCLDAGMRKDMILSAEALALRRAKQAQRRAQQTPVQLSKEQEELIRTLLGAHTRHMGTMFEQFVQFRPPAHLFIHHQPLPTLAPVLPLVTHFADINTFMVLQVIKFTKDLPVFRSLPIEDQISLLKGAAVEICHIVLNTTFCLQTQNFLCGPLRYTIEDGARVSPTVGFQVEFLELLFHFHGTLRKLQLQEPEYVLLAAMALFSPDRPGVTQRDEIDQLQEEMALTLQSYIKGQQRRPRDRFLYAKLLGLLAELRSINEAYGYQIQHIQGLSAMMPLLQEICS
# Outline: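 Stable hCAR/CYP2B6-2.2kb HepG2 line in DMEM with 10% FBS; compounds (15 concentrations) and 0.75 uM PK11195 final, 24 h at 37 C/5% CO2, then ONE-Glo luminescence after 30 min.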
# [2] = qHTS RealTime-Glo MT Cell Viability Assay in HEK293 cells - 32 hour (AID 1224868); also: potency is read from the fitted curve at half-maximal effect; nearly all actives have a fitted effect of over 50% in size
# Outline: (§1)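 Reads taken at 0, 8, 16, 24, 32 and 40 h from the same wells. HEK293 cells (600/well) carried RealTime-Glo reagents from seeding, with compound added after a 5 h settle at 37 C.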
# [3] = qHTS RealTime-Glo MT Cell Viability Assay in HEK293 cells - 16 hour (AID 1224872); also: nearly all actives have a fitted effect of over 50% in size; also: potency is read from the fitted curve at half-maximal effect
# Outline: as §1
# [4] = qHTS RealTime-Glo MT Cell Viability Assay in HEK293 cells - 40 hour (AID 1224874); conditions: RealTime-Glo luminescence; max response: stronger effect = lower value; also: potency is read from the fitted curve at half-maximal effect; nearly all actives have a fitted effect of over 50% in size
# Outline: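 Luminescence, which tracks viable cell number through reduction of the prosubstrate to a NanoLuc substrate, was read over continuous 37 C culture. Cells (600/well) were premixed with reagent and rested 5 h before 23 nL of compound in DMSO was pinned.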
# [5] = qHTS assay to identify small molecule antagonists of the estrogen related receptor signaling pathway with the pleiotropic PPARgamma coactivator (PGC) from Tox21 10K library - cell viability counter screen (AID 1224840; active = well fitted cell-killing curve with a large enough effect in the repeat runs, not every such curve was filed as active; inconclusive = weak or mixed curves, or effect the other way; inactive = no such curve, though single readings can be large or run the other way; also: potency is read from the fitted curve at half-maximal effect; nearly all actives have a fitted effect of over 40% in size)
# Outline: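 Counter-screen for cytotoxicity: after 17.5 h compound exposure at 37 C, CellTiter-Fluor reagent added to PGC/ERR cells for 30 min and fluorescence read. Cells were seeded at 2,000 per well 6 h before dosing.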
# [6] = biological target: Thyrotropin receptor (Homo sapiens) (UniProt P16473); experiment: qHTS assay to identify small molecule agonists of the thyroid stimulating hormone receptor (TSHR) signaling pathway (AID 1224843; calls by dose curve; also: nearly all actives have a fitted effect of over 45% in size; also: potency is read from the fitted curve at half-maximal effect; as to activation: % is scaled to controls: 0 for no effect and ±100 for the full control effect); conditions: TSHR-HEK293 cells, cAMP HTRF, agonist mode, 30 min; activation: at 92.4 µM (top of the series) unless noted
# UniProt P16473, sequence (P16473 whole entry, looked up): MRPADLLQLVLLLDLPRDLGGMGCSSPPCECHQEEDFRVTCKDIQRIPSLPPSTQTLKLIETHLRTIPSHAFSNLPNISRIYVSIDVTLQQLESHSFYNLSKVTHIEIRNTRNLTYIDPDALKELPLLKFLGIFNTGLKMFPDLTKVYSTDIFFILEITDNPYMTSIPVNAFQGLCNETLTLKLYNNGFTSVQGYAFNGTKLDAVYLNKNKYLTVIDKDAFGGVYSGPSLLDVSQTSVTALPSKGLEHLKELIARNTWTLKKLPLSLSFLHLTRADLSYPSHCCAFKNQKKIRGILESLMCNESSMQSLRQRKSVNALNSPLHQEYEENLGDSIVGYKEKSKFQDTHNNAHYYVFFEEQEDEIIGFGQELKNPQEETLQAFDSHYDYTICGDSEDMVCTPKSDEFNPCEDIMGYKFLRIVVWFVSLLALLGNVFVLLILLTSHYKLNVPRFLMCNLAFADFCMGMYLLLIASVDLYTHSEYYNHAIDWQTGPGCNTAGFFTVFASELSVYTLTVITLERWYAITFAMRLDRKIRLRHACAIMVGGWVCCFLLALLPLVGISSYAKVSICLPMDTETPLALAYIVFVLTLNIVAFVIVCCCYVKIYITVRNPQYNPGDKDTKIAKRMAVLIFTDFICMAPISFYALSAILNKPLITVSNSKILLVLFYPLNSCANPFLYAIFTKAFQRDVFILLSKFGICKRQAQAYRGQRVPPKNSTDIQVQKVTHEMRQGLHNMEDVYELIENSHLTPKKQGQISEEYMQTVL
# Outline: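 Agonist activity read as cAMP rise via d2/cryptate HTRF competition, 1 h room-temperature detection, in HEK293 cells expressing TSHR. Fifteen-point titrations, each run in triplicate, with a 30 min room-temperature incubation beforehand.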
# [7] = qHTS assay to identify small molecule agonists of the hypoxia (HIF-1) signaling pathway - cell viability counter screen (AID 1224844; calls by dose curve; also: potency is read from the fitted curve at half-maximal effect; nearly all actives have a fitted effect of over 50% in size)
# Outline: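 Cytotoxicity measured by CellTiter-Glo ATP luminescence in the wells also read for beta-lactamase signal. Cells were HRE-bla ME-180 (2,000/well, 0.5% dialyzed FBS), exposed to compounds for 17 h at 37C.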
# [8] = qHTS assay to identify small molecule agonists of H2AX - cell viability counter screen (AID 1224847; calls by dose curve; also: nearly all actives have a fitted effect of over 30% in size; also: potency is read from the fitted curve at half-maximal effect)
# Outline: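 Viability of CHO-K1 (wild type) cells after 3 hr compound exposure was measured by CellTiter-Glo luminescence.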
# [9] = qHTS assay to identify small molecule agonists of H2AX (AID 1224845; active = well fitted activation curve with a large enough effect in the signal ratio in the repeat runs, not every such curve was filed as active; inconclusive = weak or mixed curves; the % refers to the signal ratio; also: potency is read from the fitted curve at half-maximal effect); conditions: CHO-K1 phospho-H2AX Ser139 HTRF, 3 h; activation (H2AX phosphorylation): at 154 µM (top of the series)
# Outline: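 Phospho-H2AX Ser139 measured by HTRF (ex 320 nm; em 665 and 620 nm) after 24 hr antibody incubation. Compounds, 15 concentrations, 0.76% DMSO, were applied to CHO-K1 cells for 3hr at 37C before lysis.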
# [10] = qHTS RealTime-Glo MT Cell Viability Assay in HepG2 cells - 8 hour (AID 1224873); also: potency is read from the fitted curve at half-maximal effect; nearly all actives have a fitted effect of over 55% in size
# Outline: (§2)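 Real-time viability: cells seeded at 600 per well together with NanoLuc and cell-permeant prosubstrate, compounds added after 5 h incubation. Luminescence tracked at 0, 8, 16, 24, 32 and 40 h of exposure.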
# [11] = A CellTox Green Cytotoxicity Assay to monitor cytotoxicity in HEK293 cells - 40 hour (AID 1224871); also: potency is read from the fitted curve at half-maximal effect; nearly all actives have a fitted effect of over 45% in size
# Outline: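 Fluorescence from a DNA-binding dye excluded by viable cells was measured repeatedly in the same HEK293 wells (600 cells/well) during continuous compound exposure at 37 C. Each assay gives one read point: 0, 8, 16, 24, 32 or 40 h.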
# [12] = qHTS RealTime-Glo MT Cell Viability Assay in HepG2 cells - 24 hour (AID 1224867)
# Outline: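 HepG2 suspension premixed with RealTime-Glo reagents is plated at 600 cells per well and left 5 h at 37 C/5% CO2. Compounds in DMSO then go in, and bioluminescence reflecting viable cell number is recorded over 40 h.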
# [13] = qHTS RealTime-Glo MT Cell Viability Assay in HepG2 cells - 40 hour (AID 1224870)
# Outline: as §2
# [14] = qHTS assay to identify small molecule agonists of the hypoxia (HIF-1) signaling pathway (AID 1224846; active = well fitted activation curve with a large enough effect in the signal ratio in the repeat runs, not every such curve was filed as active; inconclusive = weak or mixed curves; the % refers to the signal ratio; also: potency is read from the fitted curve at half-maximal effect); conditions: HRE-bla ME-180 cells, beta-lactamase ratio, 17 h; activation: at 76.8 µM (top of the series) unless noted
# Outline: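 Compounds added to ME-180 cells carrying hypoxia-response-element beta-lactamase reporter (0.5% dialyzed FBS, 5 h preplating), 17 h at 37C; agonist activity detected by CCF4-AM B/G FRET read-out.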
# [15] = qHTS assay to identify small molecule antagonists of the estrogen related receptor (ERR) signaling pathway from Tox21 library (AID 1224848)
# Outline: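 Luciferase luminescence (ONE-Glo, 30 min room temperature) was the read-out. Cells of the NTP-supplied ERR line, 2,000 per well, were given 6 h at 37 C before compound addition in DMSO and 18 h exposure at 37 C.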
# Tags tell the direction and shape of the fitted curve or compound fluorescence and quenching.
structure (smiles),measurement,setting,value
CCO/N=C(\CC)C1=C(O)CC(c2c(C)cc(C)cc2C)CC1=O (stereo not drawn),Potency,[1],inactive
same,Potency,[2],"inconclusive: 34.7 µM [cytotoxic, partial curve]"
same,Potency,[3],"inconclusive: 21.9 µM [cytotoxic, partial curve]"
same,Potency,[4],inconclusive: 37.4 µM [cytotoxic]
Nc1ccc(-c2ccc(N)c(N)c2)cc1N,Potency,[5],inconclusive: 27.2 µM [cytotoxic] and inconclusive: 61.1 µM [cytotoxic]
same,Potency,[6],inconclusive: 54.5 µM [partial curve]
same,Potency,[7],"inconclusive: 61.6 µM [cytotoxic, partial curve, poor fit]"
same,Potency,[8],inconclusive: 126 µM [cytotoxic]
same,Potency,[2],"inconclusive: 48.8 µM [cytotoxic, partial curve]"
same,Potency,[3],"inconclusive: 43.5 µM [cytotoxic, partial curve]"
same,Potency,[4],"inconclusive: 43.5 µM [cytotoxic, partial curve]"
CCOP(=S)(OCC)SCn1nnc2ccccc2c1=O,Potency,[5],"inconclusive: 48.6 µM [cytotoxic, partial curve]"
same,Potency,[9],"inconclusive: 35.7 µM [rising, partial curve]"
same,Potency,[8],"inconclusive: 45 µM [cytotoxic, full curve]"
same,Potency,[2],active: 21.9 µM
same,Potency,[10],"inconclusive: 43.6 µM [falling, partial curve]"
same,Potency,[4],active: 19.5 µM
C[C@]12Cc3nonc3C[C@@H]1CC[C@@H]1[C@@H]2CC[C@@]2(C)[C@H]1CC[C@]2(C)O,Potency,[5],"inconclusive: 33.5 µM [cytotoxic, single point]"
same,Potency,[7],active: 26.8 µM
same,Potency,[8],active: 49.2 µM
same,Potency,[11],"inconclusive: 26.8 µM [activator, single point]"
same,Potency,[3],active: 19 µM
same,Potency,[4],active: 19 µM
OCC(c1ccc(Cl)cc1)c1ccc(Cl)cc1,Potency,[5],"inconclusive: 68.6 µM [cytotoxic, single point]"
same,activation,[6],inconclusive: 9.17%
same,Potency,[7],inconclusive: 54.9 µM [cytotoxic]
same,Potency,[12],"inconclusive: 43.6 µM [falling, partial curve]"
same,Potency,[2],active: 34.7 µM
same,Potency,[13],"inconclusive: 49 µM [falling, partial curve, poor fit]"
same,Potency,[3],active: 30.9 µM
same,Potency,[10],"inconclusive: 43.6 µM [falling, partial curve]"
COP(=O)(OC)O/C(=C\Cl)c1cc(Cl)c(Cl)cc1Cl,Potency,[5],"inconclusive: 27.3 µM [cytotoxic, partial curve, poor fit]"
same,Potency,[14],inconclusive: 54.9 µM
same,Potency,[12],"inconclusive: 54.9 µM [falling, partial curve, poor fit]"
same,Potency,[13],"inconclusive: 54.9 µM [falling, single point]"
same,Potency,[3],inactive
same,Potency,[10],"inconclusive: 27.5 µM [falling, partial curve, poor fit]"
CN(C)C(=S)S,Potency,[5],"inconclusive: 7.85 µM [cytotoxic, full curve] and active: 2.15 µM and active: 12.2 µM"
same,Potency,[9],active: 29 µM and active: 4.47 µM
same,Potency,[12],active: 11 µM
same,Potency,[13],active: 9.77 µM
same,Potency,[3],"inconclusive: 11.2 µM [cytotoxic, full curve]"
same,Potency,[10],"inconclusive: 13.8 µM [falling, full curve]"
CC[C@H]1C[C@@H]2C[C@H]3c4[nH]c5ccc(OC)cc5c4CCN(C2)[C@@H]13,Potency,[5],"inconclusive: 67.4 µM [cytotoxic, single point]"
same,Potency,[7],"inconclusive: 54 µM [cytotoxic, single point]"
same,Potency,[9],"inconclusive: 111 µM [activator, single point]"
same,Potency,[14],inconclusive: 54 µM [single point]
same,Potency,[8],inactive
same,Potency,[12],"inconclusive: 48.1 µM [falling, partial curve, poor fit]"
same,Potency,[2],"inconclusive: 24.1 µM [cytotoxic, partial curve]"
same,Potency,[13],"inconclusive: 54 µM [falling, single point]"
same,Potency,[4],"inconclusive: 24.1 µM [cytotoxic, partial curve]"
CCOP(=O)(OCC)O/C(=C/Cl)c1ccc(Cl)cc1Cl,Potency,[5],"inconclusive: 34.4 µM [cytotoxic, partial curve, poor fit]"
same,Potency,[6],"inconclusive: 24.3 µM [inhibitor, partial curve]"
same,Potency,[8],"inconclusive: 63.5 µM [cytotoxic, partial curve]"
same,Potency,[15],active: 6.86 µM
same,Potency,[2],active: 21.9 µM
same,Potency,[3],"inconclusive: 38.9 µM [cytotoxic, partial curve]"
